Experimental data reported in PubChem BioAssay AID1460 (National Center for Advancing Translational Sciences (NCATS), 2008).
“And” between values parts separate entries of the source, which are not always exact repeats. Equal entries are not always repeated. The whole screen tested about 270,000 compounds, of which about 5,800 (2.1%) were called active. The inconclusive results got no clear call from the source; some entries with a clear call stand among them for comparison. Calls follow the shape of the dose curve; as a rule, active = well fitted inhibition curve with a large enough effect; inconclusive = small, poorly fitted or top-dose-only effect; inactive = flat fitted curve, though single readings scatter. A potency beside an inconclusive call is a rough fit, not a confirmed value.

target: Microtubule-associated protein tau (Homo sapiens) (UniProt P10636); assay: qHTS for Inhibitors of Tau Fibril Formation, Thioflavin T Binding; conditions: recombinant tau K18 P301L (four-repeat tau fragment), heparin-induced fibrillization, ThT fluorescence; series mostly up to 57.4 µM; also: nearly all actives have a fitted effect of over 55% in size
Text: NIH Molecular Libraries Probe Production Network [MLPCN]
NIH Chemical Genomics Center [NCGC]
Assay Provider: Carlo Ballatore, University of Pennsylvania
The microtubule-associated protein tau is an abundant protein in the axons of neurons that stabilizes microtubules. With its ability to modulate microtubule dynamics, tau contributes directly or indirectly, to key structural and regulatory cellular functions. Particularly important is the influence tau exerts on axonal transport, which allows signaling molecules, trophic factors and other essential cellular constituents to travel along the axons. Under pathological conditions, tau becomes sequestered into insoluble aggregates called neurofibrillary tangles. This phenomenon is believed to have pathological consequences by promoting axonal transport deficits that ultimately lead to synaptic dysfunction and neuronal loss. To identify inhibitors of tau aggregation, a heparin-induced tau fibril formation assay was used that employed a recombinantly expressed fragment of tau, K18 (Q242-E372), bearing a P301L mutation (Gustke et al. 1994; Hong et al. 1998). This assay monitors tau fibrillization by Thioflavin T (ThT) fluorescence.
Gustke, N., B. Trinczek, et al. (1994). "Domains of tau protein and interactions with microtubules." Biochemistry 33(32): 9511-22.
Hong, M., V. Zhukareva, et al. (1998).
Li, W. and V. M. Lee (2006).
von Bergen, M., S. Barghorn, et al. (2001). "Mutations of tau protein in frontotemporal dementia promote aggregation of paired helical filaments by enhancing local beta-structure." J Biol Chem 276(51): 48165-74.
NCGC Assay Protocol Summary:
For screening, 2 uL/well human K18 P301L (15 uM unlabeled and 0.24 uM Alexa 594-labeled tau, final concentrations) in reagent buffer (100 mM sodium acetate pH 7) was dispensed into black solid 1536-well plates (Grenier) using a solenoid-based dispenser. Following transfer of 23 nL compound or DMSO vehicle by a pin tool, 2 uL/well heparin (20 uM final concentration) in reagent buffer was added and the plate centrifuged 15 s at 1000 RPM. Plates were incubated 6 hr at 37 C and then 1 uL/well ThT (30 uM final concentration) was added. After a 1 hr ambient incubation, the plates were read by an Envision (Perkin Elmer) to monitor ThT fluorescence (450/8 nm excitation and 510/23 nm emission).
Keywords: NIH Roadmap, MLPCN, MLI, MLSMR, NCGC, qHTS, tau, tauopathies, Alzheimer's disease, fibril, neurodegeneration, aggregation
Potency is read from the fitted curve at half-maximal effect; tags tell the direction and shape of the fitted curve.

UniProt P10636, sequence (P10636 whole entry, looked up, the tested form may be a part): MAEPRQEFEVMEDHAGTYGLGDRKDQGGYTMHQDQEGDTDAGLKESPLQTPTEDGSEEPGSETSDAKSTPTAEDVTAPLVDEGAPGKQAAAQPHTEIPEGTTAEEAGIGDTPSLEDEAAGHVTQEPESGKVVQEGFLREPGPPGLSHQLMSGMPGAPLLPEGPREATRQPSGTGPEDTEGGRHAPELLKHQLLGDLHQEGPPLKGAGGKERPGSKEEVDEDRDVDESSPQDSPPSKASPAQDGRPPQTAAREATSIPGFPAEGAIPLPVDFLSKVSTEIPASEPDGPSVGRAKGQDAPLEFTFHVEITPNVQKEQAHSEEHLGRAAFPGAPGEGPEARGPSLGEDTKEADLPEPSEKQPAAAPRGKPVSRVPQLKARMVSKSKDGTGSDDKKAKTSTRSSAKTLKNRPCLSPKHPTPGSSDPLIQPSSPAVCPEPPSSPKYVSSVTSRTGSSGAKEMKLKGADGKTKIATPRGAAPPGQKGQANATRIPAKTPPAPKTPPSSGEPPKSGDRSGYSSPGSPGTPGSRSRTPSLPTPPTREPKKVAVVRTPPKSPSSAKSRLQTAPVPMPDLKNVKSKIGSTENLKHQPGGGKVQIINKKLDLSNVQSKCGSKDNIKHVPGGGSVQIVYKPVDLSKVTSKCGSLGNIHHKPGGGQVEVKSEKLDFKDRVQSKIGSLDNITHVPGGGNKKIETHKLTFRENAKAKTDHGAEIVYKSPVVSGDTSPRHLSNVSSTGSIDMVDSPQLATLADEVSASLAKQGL

| Compound | Potency |
| --- | --- |
| Cc1cc(SCC(=O)N/N=C/c2ccco2)nc2ccccc12 | inconclusive: 28.2 µM [inhibitor, single point] |
| O=C1NC(c2cccnc2)Nc2sc3c(c21)CCCC3 (centres undefined) | inconclusive: 15.8 µM [inhibitor, partial curve, poor fit] |
| CCCCC/C=C\C/C=C\C/C=C\C/C=C\CCCC(=O)Nc1ccc(O)cc1C | inconclusive: 20 µM [inhibitor, partial curve, poor fit] |
| COc1ccc(CC2C(=O)N(C)C(=O)N(C)C2=O)c(OC)c1 | inconclusive: 35.5 µM [inhibitor, partial curve] |
| Cc1cccc(N2C(=O)/C(=C/N3CCN(C(=O)c4ccco4)CC3)C(=O)NC2=S)c1 | inconclusive: 14.1 µM [inhibitor, partial curve] |
| CN(C)C(Cc1ccccc1)C(=O)c1ccc(-c2ccccc2)cc1 (centres undefined) | inconclusive: 31.6 µM [inhibitor, single point] |
| CC(C)=CCCC1(C)C=Cc2c(O)c3c(c(CC=C(C)C)c2O1)OC12C(CC4CC1C(C)(C)OC2(C/C=C(/C)C(=O)O)C4O)C3=O (centres undefined) | inconclusive: 35.5 µM [inhibitor, partial curve, poor fit] |
| COc1ccc(-n2c(O)c(C(C)=Nc3ccc4c(c3)CCC4)c(=O)[nH]c2=O)cc1 | inconclusive: 14.1 µM [inhibitor, partial curve] |
| C=CCOc1ccc(CC2C(=O)N(C)C(=O)N(C)C2=O)cc1 | inconclusive: 39.8 µM [inhibitor, single point] |
| CCc1ccc(N2C(=O)NC(=O)/C(=C\C=C\c3ccco3)C2=O)cc1 | active: 10 µM |
| Cn1c(=O)c2nncnc2n(C)c1=O | inconclusive: 35.5 µM [inhibitor, partial curve] |
| CCN1CCN(c2ccc([N+](=O)[O-])cc2C=C2C(=O)NC(=O)NC2=O)CC1 | inconclusive: 20 µM [inhibitor, single point] |
| O=C(CSc1ccc(-c2ccco2)nn1)Nc1ccccc1 | inconclusive: 17.8 µM [inhibitor, partial curve] |
| COC(=O)C1C(O)C(C)C(O)C(C)/C=C\C=C(/C)C(=O)Nc2c(C)c(OC(C)=O)c3c(c2O)C(=O)C(C)=C2OCOC(=C23)/C(C)=C/C(C)(O)C(O)C(C)C1O (centres undefined) | active: 31.6 µM |
| CN(C)CCO | inconclusive: 17.8 µM [inhibitor, partial curve, poor fit] |
| O=C1NC(=O)N(CCC2=CCCCC2)C(=O)/C1=C/c1ccc(O)cc1 | inconclusive: 7.94 µM [inhibitor, partial curve] |
| CN(C)CCCNCC(=O)Nc1ccc(Cl)cc1C(=O)c1ccccc1 | inactive |
| O=C1NC(=O)C(=Cc2cc(Cl)ccc2OCc2ccc(C(=O)O)cc2)C(=O)N1 | inconclusive: 3.55 µM [inhibitor, full curve] |
| Cc1cc(C=C2C(=O)NC(=O)NC2=O)c(C)n1-c1ccncc1 | inconclusive: 12.6 µM [inhibitor, partial curve] |
| COc1ccc(CN2C(=O)NC(=O)/C(=C\c3cccc(OC)c3OC)C2=O)cc1 | inconclusive: 3.16 µM [inhibitor, full curve] |

| Compound | Potency |
| --- | --- |
| N#CC(C#N)=Cc1ccc(N2CCCC2)cc1 | inconclusive: 7.08 µM [inhibitor, partial curve] |
| O=C(N[C@H]1CN2CCC1CC2)c1ccc(Cl)cc1 | inactive |
| O=[N+]([O-])c1ccc2nc(N3CCNCC3)ccc2c1 | inactive |
| C=CCN1C(=O)NC(=O)/C(=C/c2ccoc2)C1=O | inconclusive: 22.4 µM [inhibitor, single point] |
| CCOC(=O)C(O)(c1ccc(NC(=S)NC(=O)c2ccc(Cl)cc2Cl)cc1)C(F)(F)F (centres undefined) | inconclusive: 17.8 µM [inhibitor, single point] |
| CCn1c(P(C)(=O)O)nc2ccccc21 | inactive |
| CN1Cc2ccccc2[C@@H]2c3cccc4[nH]cc(c34)C[C@H]21 | active: 7.94 µM and active: 11.2 µM |
| CC(C)n1c(O)c(C2c3cc(Cl)ccc3Oc3[nH]c(=O)n(C(C)C)c(=O)c32)c(=O)[nH]c1=O (centres undefined) | inconclusive: 0.891 µM [inhibitor, full curve] |
| C[C@]12C=CC(=O)C=C1CC[C@@H]1[C@@H]2CC[C@@]2(C)[C@H]1CC[C@]2(C)O | inconclusive: 3.98 µM [inhibitor, partial curve] |
| CC=C(C)C(=O)O[C@H]1C(C)=C2[C@@H]3OC(=O)[C@@](C)(O)[C@@]3(O)[C@@H](OC(=O)CCC)C[C@](C)(OC(C)=O)[C@@H]2[C@@H]1OC(=O)CCCCCCC | inconclusive: 35.5 µM [inhibitor, single point] |
| Cc1ccc(-n2c(C)cc(/C=C3/C(=O)NC(=O)N(C)C3=O)c2C)cc1 | inconclusive: 14.1 µM [inhibitor, partial curve] |
| Cc1cccc(CSc2nc3c(cc2C#N)CN(C)CC3)c1 | inconclusive: 17.8 µM [inhibitor, partial curve] |
| Cc1c(N=Nc2c(O)n(-c3ccc(Br)cc3)c(=O)[nH]c2=O)c(=O)n(-c2ccccc2)n1C | inconclusive: 20 µM [inhibitor, partial curve] |
| CS(=O)(=O)c1ncc(Cl)c(C(=O)Nc2c(C(=O)Nc3ccccc3)oc3ccccc23)n1 | active: 8.91 µM |
| O=C(Nc1ccc2oc(-c3cccnc3)nc2c1)c1ccc(-c2cccc(Cl)c2)o1 | inconclusive: 0.631 µM [inhibitor, full curve] |
| C[C@]12CC[C@H]3[C@@H](CCC4=CC(=O)CC[C@@H]43)[C@@H]1CC[C@@H]2O | inactive |
| CC(C)CCn1c(N2CCN(c3cccc(Cl)c3)CC2)nc2c1c(=O)[nH]c(=O)n2C | inconclusive: 15.8 µM [inhibitor, single point] |
| O=C(O)CCn1cc(C=C2C(=O)NC(=O)NC2=O)c(-c2cc3ccccc3oc2=O)n1 | inconclusive: 6.31 µM [inhibitor, partial curve] |
| COC(=O)C1=Nc2ccccc2/C1=C\c1c(O)n(-c2ccc(OC)cc2)c(=O)[nH]c1=O | inconclusive: 5.01 µM [inhibitor, partial curve, poor fit] |
| CN(C)C1C(=O)C(C(N)=O)=C(O)[C@@]2(O)C(=O)C3=C(O)c4c(O)cccc4[C@@](C)(O)C3C[C@@H]12 (some centres undefined) | inconclusive: 28.2 µM [inhibitor, partial curve, poor fit] |

| Compound | Potency |
| --- | --- |
| CC(=O)[C@@]1(O)CC[C@H]2[C@@H]3C[C@H](C)C4=CC(=O)CC[C@]4(C)[C@H]3CC[C@@]21C | inconclusive: 8.91 µM [inhibitor, partial curve] |
| COCCCn1c(N)c(C(=O)Nc2ccccc2)c2nc3ccccc3nc21 | inconclusive: 28.2 µM [inhibitor, single point] |
| COc1ccc(/C=C2/C(=O)NC(=S)N(C3CC3)C2=O)cc1CN1C(=O)c2ccccc2C1=O | inconclusive: 25.1 µM [inhibitor, partial curve] |
| COc1cc2c(cc1OC)[C@@H]1C(=O)c3ccc4c(c3OC1CO2)CC(C(C)C)O4 (some centres undefined) | inconclusive: 15.8 µM [inhibitor, partial curve] |
| N#C/C(=C\c1cccc(O)c1)C(=O)O | inactive |
| CC(C)[C@H]1C(=O)O[C@H](C(C)C)C(=O)N(C)[C@@H](C(C)C)C(=O)O[C@H](C(C)C)C(=O)N(C)[C@@H](C(C)C)C(=O)O[C@H](C(C)C)C(=O)N1C | inconclusive: 39.8 µM [inhibitor, single point] |
| CC(C)n1c(=O)c(C=Nc2cccc([N+](=O)[O-])c2)c(O)n(CCc2ccccc2)c1=O | inconclusive: 28.2 µM [inhibitor, single point] |
| CN(C)c1ccc(/C=C/c2cc[n+](C)c3ccccc23)cc1 | inactive |
| CCN(CC)c1ccc(/C=N/c2sc3c(c2C#N)C2CCN3CC2)c(O)c1 | inconclusive: 3.16 µM [inhibitor, partial curve] |
| CCOC(=O)c1ccc(NC(=O)c2c(O)[nH]c(=O)[nH]c2=O)cc1 | inconclusive: 28.2 µM [activator, partial curve] |
| CC(C)=CCCC(C)C1CC[C@@]2(C)C3=C(CC[C@@]12C)C1(C)CCC(O)C(C)(C)C1CC3 (some centres undefined) | inconclusive: 15.8 µM [inhibitor, partial curve] |
| CN1CCN(c2cc(N3CCCC3)c([N+](=O)[O-])cc2F)CC1 | inconclusive: 17.8 µM [inhibitor, partial curve] |
| CCOC(=O)c1ccccc1NC(=O)N(Cc1ccc(CC)cc1)Cc1cn[nH]c1-c1ccc(OC)cc1 | inconclusive: 25.1 µM [inhibitor, partial curve] |
| CN1C2CCC1/C(=C/c1ccccn1)C(=O)/C2=C\c1ccccn1 | active: 4.47 µM |
| Cc1ccccc1-n1c(O)c(/C=C/C=Nc2ccccc2)c(=O)[nH]c1=O | inconclusive: 39.8 µM [inhibitor, single point] |
| Cc1ccc(OCC(=O)N2CCN(Cc3ccc4c(c3)OCO4)CC2)cc1C | inactive |
| COc1ccc(N/N=C/c2c(O)n(-c3cccc(C)c3)c(=O)[nH]c2=O)cc1 | inconclusive: 20 µM [inhibitor, partial curve] |
| CN(C)P(=O)(C(Cl)=C(N1CCCCC1)N1CCCCC1)N(C)C | inconclusive: 28.2 µM [inhibitor, partial curve] |
| O=C1C=C2C=C[C@H]3C[C@]2(O1)[C@@H]1CCCCN13 | inconclusive: 15.8 µM [inhibitor, partial curve] |
